{"sequences": {"note": "The chains behind the UniProt entries cited, without tags or fusion partners.", "UniProt Q92993": "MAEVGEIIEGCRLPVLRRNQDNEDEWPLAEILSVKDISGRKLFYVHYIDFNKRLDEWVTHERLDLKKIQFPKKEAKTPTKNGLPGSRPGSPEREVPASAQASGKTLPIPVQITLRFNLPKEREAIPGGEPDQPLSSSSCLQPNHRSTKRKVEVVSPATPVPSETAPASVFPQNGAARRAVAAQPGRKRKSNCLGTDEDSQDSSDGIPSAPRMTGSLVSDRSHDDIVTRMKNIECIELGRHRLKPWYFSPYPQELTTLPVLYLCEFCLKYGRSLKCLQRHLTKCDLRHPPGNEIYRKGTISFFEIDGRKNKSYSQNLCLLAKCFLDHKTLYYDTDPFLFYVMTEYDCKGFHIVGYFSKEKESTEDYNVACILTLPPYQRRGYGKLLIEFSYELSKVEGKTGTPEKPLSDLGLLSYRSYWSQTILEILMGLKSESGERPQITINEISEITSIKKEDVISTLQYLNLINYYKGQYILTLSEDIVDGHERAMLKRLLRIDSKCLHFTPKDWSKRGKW", "UniProt Q12834": "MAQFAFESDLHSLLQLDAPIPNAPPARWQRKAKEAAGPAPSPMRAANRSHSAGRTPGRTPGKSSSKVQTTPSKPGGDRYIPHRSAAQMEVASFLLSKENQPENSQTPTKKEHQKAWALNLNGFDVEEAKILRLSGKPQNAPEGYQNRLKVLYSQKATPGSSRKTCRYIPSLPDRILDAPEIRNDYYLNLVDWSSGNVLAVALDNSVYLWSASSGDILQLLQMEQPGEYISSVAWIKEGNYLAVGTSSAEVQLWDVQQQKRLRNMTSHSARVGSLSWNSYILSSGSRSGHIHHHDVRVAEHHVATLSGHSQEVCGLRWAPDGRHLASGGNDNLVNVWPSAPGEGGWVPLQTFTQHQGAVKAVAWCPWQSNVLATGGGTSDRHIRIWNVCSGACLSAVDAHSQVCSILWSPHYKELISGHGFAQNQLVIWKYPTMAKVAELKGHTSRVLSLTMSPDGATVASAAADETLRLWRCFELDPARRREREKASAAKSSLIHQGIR", "UniProt O43683": "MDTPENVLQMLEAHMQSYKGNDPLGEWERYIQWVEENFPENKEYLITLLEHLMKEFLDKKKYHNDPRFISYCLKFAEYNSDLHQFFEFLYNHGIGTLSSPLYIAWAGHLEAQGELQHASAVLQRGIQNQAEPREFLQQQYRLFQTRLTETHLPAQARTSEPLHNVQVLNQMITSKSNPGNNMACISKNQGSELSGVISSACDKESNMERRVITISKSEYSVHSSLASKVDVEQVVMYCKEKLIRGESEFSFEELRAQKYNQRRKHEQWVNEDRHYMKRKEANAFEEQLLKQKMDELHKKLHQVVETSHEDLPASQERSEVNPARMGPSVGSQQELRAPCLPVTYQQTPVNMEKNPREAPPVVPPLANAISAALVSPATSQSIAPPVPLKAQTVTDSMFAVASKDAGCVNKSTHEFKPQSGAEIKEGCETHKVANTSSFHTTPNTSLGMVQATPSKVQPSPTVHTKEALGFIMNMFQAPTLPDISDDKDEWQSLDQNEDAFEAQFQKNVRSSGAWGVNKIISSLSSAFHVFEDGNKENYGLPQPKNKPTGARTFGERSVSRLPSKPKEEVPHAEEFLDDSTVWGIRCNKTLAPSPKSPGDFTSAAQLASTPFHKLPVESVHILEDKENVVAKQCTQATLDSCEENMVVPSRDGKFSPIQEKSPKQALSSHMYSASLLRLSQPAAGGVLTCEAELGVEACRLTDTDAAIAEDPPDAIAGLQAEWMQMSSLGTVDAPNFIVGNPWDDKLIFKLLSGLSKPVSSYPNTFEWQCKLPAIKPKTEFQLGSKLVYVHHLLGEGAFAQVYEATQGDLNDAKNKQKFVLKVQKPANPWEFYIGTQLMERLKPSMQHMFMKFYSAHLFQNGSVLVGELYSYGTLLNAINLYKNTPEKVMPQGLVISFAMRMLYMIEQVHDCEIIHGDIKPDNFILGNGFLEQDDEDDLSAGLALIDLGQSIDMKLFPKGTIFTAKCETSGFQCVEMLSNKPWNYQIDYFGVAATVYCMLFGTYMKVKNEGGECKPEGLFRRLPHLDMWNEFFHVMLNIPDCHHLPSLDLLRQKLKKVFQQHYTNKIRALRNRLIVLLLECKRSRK", "UniProt P62136": "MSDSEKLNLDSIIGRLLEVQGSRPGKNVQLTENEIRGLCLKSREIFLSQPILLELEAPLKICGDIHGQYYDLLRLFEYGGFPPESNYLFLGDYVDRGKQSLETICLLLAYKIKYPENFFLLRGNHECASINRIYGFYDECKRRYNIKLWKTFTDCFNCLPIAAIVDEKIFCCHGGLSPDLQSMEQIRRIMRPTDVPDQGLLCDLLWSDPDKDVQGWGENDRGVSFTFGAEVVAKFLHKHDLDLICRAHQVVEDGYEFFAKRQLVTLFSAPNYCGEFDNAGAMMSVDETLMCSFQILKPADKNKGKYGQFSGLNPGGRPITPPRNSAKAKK"}, "source": "paper PMC4699913", "key": {"Flag-TIP60": {"biological_target": "Flag-TIP60 (UniProt Q92993)", "experiment": "co-IP; Flag immunoprecipitation from extracts of cells co-transfected with V5-PP1α and Flag-BGLF4, Flag-TIP60 or Flag-vector; blot for PP1α"}, "[1]": {"biological_target": "T1, Flag-BGLF4 (Epstein-Barr virus protein kinase BGLF4) (Epstein-Barr virus) (UniProt P13288)", "T1 sequence": "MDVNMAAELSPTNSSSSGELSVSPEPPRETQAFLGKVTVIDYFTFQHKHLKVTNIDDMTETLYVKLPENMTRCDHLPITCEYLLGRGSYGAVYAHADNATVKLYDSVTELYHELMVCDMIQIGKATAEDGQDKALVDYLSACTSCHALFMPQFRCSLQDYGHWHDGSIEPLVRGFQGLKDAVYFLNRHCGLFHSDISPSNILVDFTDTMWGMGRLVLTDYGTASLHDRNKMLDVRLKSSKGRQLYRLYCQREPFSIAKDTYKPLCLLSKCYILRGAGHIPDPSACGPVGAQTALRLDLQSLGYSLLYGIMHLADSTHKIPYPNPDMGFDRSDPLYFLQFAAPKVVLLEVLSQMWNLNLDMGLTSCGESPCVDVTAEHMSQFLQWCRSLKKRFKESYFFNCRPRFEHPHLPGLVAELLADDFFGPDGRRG", "experiment": "co-IP; Flag immunoprecipitation from extracts of cells co-transfected with V5-PP1α and Flag-BGLF4, Flag-TIP60 or Flag-vector; blot for PP1α"}, "myc p31^Comet (MAD2L1BP)": {"biological_target": "T2, myc p31^Comet (MAD2L1BP) (UniProt Q15013)", "T2 sequence": "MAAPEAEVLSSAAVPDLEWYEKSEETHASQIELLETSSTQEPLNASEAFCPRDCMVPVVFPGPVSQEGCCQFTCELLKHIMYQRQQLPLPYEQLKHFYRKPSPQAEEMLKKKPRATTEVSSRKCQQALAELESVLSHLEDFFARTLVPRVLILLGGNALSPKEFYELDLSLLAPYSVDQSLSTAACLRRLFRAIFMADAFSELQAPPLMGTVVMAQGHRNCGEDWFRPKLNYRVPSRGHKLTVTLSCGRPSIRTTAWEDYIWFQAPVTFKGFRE", "experiment": "co-IP; BGLF4 co-transfected with MPS1, BUB1, CDC20 or p31^Comet in 293T cells; lysates immunoprecipitated with anti-HA, anti-Myc or IgG control; blots with anti-BGLF4, anti-HA, anti-Flag or anti-Myc"}, "Flag-MPS1": {"biological_target": "T3, Flag-MPS1 (UniProt P33981)", "T3 sequence": "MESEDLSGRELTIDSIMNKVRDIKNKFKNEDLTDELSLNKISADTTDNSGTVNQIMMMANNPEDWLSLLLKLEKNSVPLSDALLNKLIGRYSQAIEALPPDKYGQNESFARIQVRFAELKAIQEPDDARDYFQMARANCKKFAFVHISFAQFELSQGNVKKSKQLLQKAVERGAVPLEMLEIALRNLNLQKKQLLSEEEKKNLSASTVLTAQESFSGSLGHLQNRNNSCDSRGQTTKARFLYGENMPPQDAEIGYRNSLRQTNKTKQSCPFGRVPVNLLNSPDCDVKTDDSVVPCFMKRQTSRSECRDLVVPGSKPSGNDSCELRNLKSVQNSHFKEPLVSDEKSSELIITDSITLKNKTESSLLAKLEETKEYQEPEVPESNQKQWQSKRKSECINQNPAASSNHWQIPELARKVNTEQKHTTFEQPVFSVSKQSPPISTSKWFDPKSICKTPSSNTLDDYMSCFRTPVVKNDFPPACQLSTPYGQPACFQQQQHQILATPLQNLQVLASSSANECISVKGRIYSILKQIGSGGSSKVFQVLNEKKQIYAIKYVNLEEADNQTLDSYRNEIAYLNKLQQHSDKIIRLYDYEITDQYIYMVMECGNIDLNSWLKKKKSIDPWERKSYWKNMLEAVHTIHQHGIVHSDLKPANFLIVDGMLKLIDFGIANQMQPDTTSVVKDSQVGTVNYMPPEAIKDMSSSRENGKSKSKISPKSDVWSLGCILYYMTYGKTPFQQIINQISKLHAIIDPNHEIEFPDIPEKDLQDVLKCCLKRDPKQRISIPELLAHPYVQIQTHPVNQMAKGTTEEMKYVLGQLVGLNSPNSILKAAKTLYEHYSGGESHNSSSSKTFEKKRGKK", "experiment": "co-IP; BGLF4 co-transfected with MPS1, BUB1, CDC20 or p31^Comet in 293T cells; lysates immunoprecipitated with anti-HA, anti-Myc or IgG control; blots with anti-BGLF4, anti-HA, anti-Flag or anti-Myc"}, "HA-cdc20": {"biological_target": "HA-cdc20 (UniProt Q12834)", "experiment": "co-IP; BGLF4 co-transfected with MPS1, BUB1, CDC20 or p31^Comet in 293T cells; lysates immunoprecipitated with anti-HA, anti-Myc or IgG control; blots with anti-BGLF4, anti-HA, anti-Flag or anti-Myc"}, "Flag-BUB1": {"biological_target": "Flag-BUB1 (UniProt O43683)", "experiment": "co-IP; BGLF4 co-transfected with MPS1, BUB1, CDC20 or p31^Comet in 293T cells; lysates immunoprecipitated with anti-HA, anti-Myc or IgG control; blots with anti-BGLF4, anti-HA, anti-Flag or anti-Myc"}}, "note": "These are yes or no findings as the source states them, for the method shown. In cells and extracts the contact can be indirect. Some results given as binding are weak or reduced against the parent protein; the word gives no strength. For part of these data: Tags and fused reporters may be left off the sequences shown."}
{"molecule": "V5-PP1α (protein phosphatase 1 alpha) (from UniProt P62136 1-330) (enzyme)", "values": [{"measurement": "binding", "setting": "Flag-TIP60", "result": "binds"}, {"measurement": "binding", "setting": "[1]", "result": "binds weakly"}]}
{"molecule": "BGLF4 (as co-transfected in 293T cells, Fig 6B) (enzyme, UniProt P13288 1-429) MDVNMAAELSPTNSSSSGELSVSPEPPRETQAFLGKVTVIDYFTFQHKHLKVTNIDDMTETLYVKLPENMTRCDHLPITCEYLLGRGSYGAVYAHADNATVKLYDSVTELYHELMVCDMIQIGKATAEDGQDKALVDYLSACTSCHALFMPQFRCSLQDYGHWHDGSIEPLVRGFQGLKDAVYFLNRHCGLFHSDISPSNILVDFTDTMWGMGRLVLTDYGTASLHDRNKMLDVRLKSSKGRQLYRLYCQREPFSIAKDTYKPLCLLSKCYILRGAGHIPDPSACGPVGAQTALRLDLQSLGYSLLYGIMHLADSTHKIPYPNPDMGFDRSDPLYFLQFAAPKVVLLEVLSQMWNLNLDMGLTSCGESPCVDVTAEHMSQFLQWCRSLKKRFKESYFFNCRPRFEHPHLPGLVAELLADDFFGPDGRRG", "values": [{"measurement": "binding", "setting": "myc p31^Comet (MAD2L1BP)", "result": "binds"}, {"measurement": "binding", "setting": "Flag-MPS1", "result": "binds"}, {"measurement": "binding", "setting": "HA-cdc20", "result": "binds"}, {"measurement": "binding", "setting": "Flag-BUB1", "result": "no binding"}]}
